Measurements: the RNAGym collection of RNA variant scans (doi:10.7554/elife.90254)
Read counts are not given, so values of variants with three or more changes are uncertain.

B1: LINE1-full (parent)
chain: UACGUAGGUGGUUUUCCCCUGAUAGUGCUAAGGGGGCCUGGAAGUUUGGACUGGGCAGAGCUCAACACAGCGUGGCAAAGUGGCUGUGGCUAGACUGCCUCUCUGGAUUCCUCGUCACUCAGCAGGGCAUCUCUGAGAGAAAUGCC

Variants of: B1
Assay: self-cleavage, relative activity (ratio to wild type); higher = more cleavage; in vitro, sequencing; the parent is a self-cleaving ribozyme

Row | Variant | self-cleavage
1 | UAUGUAGGUGGUUUUCCCCUGAUAGUGCUAAGGGGGCCUGGAAGUUUGGACUGGGCAGAGCUCAACACAGCGUGGCAGAGUGGCUGUGGCUAGACUGCCUCUCUGGGUUCCUCGUCACUCAGCAGGGCAUCUCUGAGAGAGAUGCC [C3U A78G A107G A141G] | 1.72
2 | UAUGUAGGUGGUUUUCCCCUGAUAGUGCUAAGGGGGCCUGGAAGUUUGGACUGGGCAGAGCUCAACACAGCGUGGCAAAGUGGCUGUGGCUAGACUGCCUCUCUGGAUUCCUCGUCACUCAGCAGGGCAUCUCUGGGGGAAAUGCC [C3U A136G A138G] | 1.11
3 | UAUGUAGGUGGUUUUACCCUGAUAGUUCUAAGUGGGCCUGGAAGUUUGGACUGGGCAGAGCUCAACACAGCGUGGCAAAGUGGCUGUGGCUAGACUGCCUCUCUGGAUUCCUCGUCGCUCAGCAGGGCAUCUCUGAGAGAAAUGCC [C3U C16A G27U G33U A117G] | 1.18
4 | UAUGUAGGUGGUUUUCCCCUGAUAGUGCUAAGGGGGCCUGGAAGUUUGGACUGGGCAGAGCUCAACACAGCGUGGCAGAGUGGCUGUGGCUAGACUGCCUCUCUGGAUUCCCCGUCACUCAGCAGGGCAUCUCUGAGAGAAAUGCC [C3U A78G U112C] | 0.66
5 | UAUGUAGGUGGUUUUCCCCUGAUAGUGCUAAGGGGGCCUGGAAGUUUGGACUGGGCGGAGCUCAACACAGCGUGGCGAAGUGGCUGUGGCUAGACUGCCUCUCUGGAUUCCUCGUCACUCAGCAGGGCAUCUCUGAGAGAAAUACC [C3U A57G A77G G144A] | 0.96
6 | UAUGUAGGUGGUUUUCCCCUGAUAGUGCUAAGGGGGCCUGGAAGUUUGGACUGGGCAGAGCUCAACACAGCGUGGCAAAGUGGCUGUGGCUAGACUGCCUCUCUGGAUUCCUCGUCACUCAACAGGGCAUCUCUGAGAGAAAGGCC [C3U G122A U143G] | 1.05
7 | UAUGUAGGUGGUUUUCCCCUGAUAGUGCUAAGGGGGCCUGGAAGUUUGGAAUGGGCAGAGCUCAACACAGCGUGGCAAAGCGGCUGUGGCUAGACUGCCUCCCUGGAUUCCUCGUCACUCGGCAGGGCAUCUCUGAGAGAAAUGCC [C3U C51A U81C U102C A121G] | 0.38
8 | UAUGUAGGUGGUUUUCCCCUGAUAGUGCUAAGGGGGCCUGGAAGUUUGGACUGGGCAGAGCUCAACACGGCGUGGCAAAGUGGCUGUGGCUAGACUGCCUCUCCGGAUUCCUCGUCACUCAGCAGGGCAUCUCUGAGAGAAAUGCC [C3U A69G U104C] | 0
9 | UAUGUAGGUGGUUUUCCCCUGAUAGUGCUAAGGGGGCCUGGAAGUUUGGACUGGGCAGAGCUCAACACGGCGUGGCAAAGUGGCUGUGGCUAGACUGCCUCUCUGGAUUCCUCGUCACUCAGCAGGGCAUCUCUGUGAGAAAUGCC [C3U A69G A136U] | 0.68
10 | UAUGUAGGUGGUUUUCCCCUGAUAGUGCUAAGGGGUCCUGGAAGUUUGGACGGGGCAGAGCUCAACACAGCGUGGCAAAGUGGCUGUGGCUAGACUGCCUCUCUGGAUUCCUCGUCACUCAGCAGGGCUUCUCUGAGAGAAAUGCC [C3U G36U U52G A129U] | 0.58
11 | UAUGCAGGUGGUCUUCCCCUGAUAGUGCUAAGGGGGCCUGGAAGUUUGGACUGGGCAGAGCUCAACACAGCGUGGCAAAGUGGCUGUGGCUAGACUGCCUCUCUGGACUCCUCGUCACUCAGCAGGGCAUCUCUGAGAGAAAUGCC [C3U U5C U13C U108C] | 0.94
12 | UAUGUAGGUGGUUUUCCCCUGAUAGUGCUAAGGGGACCUGGAAGUUUGGACUGGGCAGAGCUCAACACAGCGUGGCAAAGUGGCUGUGGCUAGACUGCCUCUCUGGAUUCCUCGUCACUCAGCGGGGCAUCUCUGAGAGAAAUGCC [C3U G36A A124G] | 0.48
13 | UAUGCAGGUGGUUUUCCCCUGAUAGUGCUAAGGGGGCCUGGAAGUUUGGACUGGGCAGAGCUCAACACAGCGUGGCAAAGUGGCUGUGGCUAGACUGCCUCUCUGGAUUCCUCGUCACUCAGCAGGGCAUCUCUGAGAGAGAUGCC [C3U U5C A141G] | 0.63
14 | UAUGUAGGUGGUUUUCCCCUGAUAGUGCUAAGGGGGCCUGGAAGUUUGGACUGGGCAGAGCUCAACGCAGCGUGGCGAAGUGGCUGUGGCUAGACUGCCUCUCUGGAUUCCUCGUCACUCAGCAGGGCAUCUCUGAGAGAAAUGCC [C3U A67G A77G] | 0
15 | UAUGUAGGUGGUUUUCCCCUGAUAGUGCUAAGGGGGCCUGGAAGUUUGGACUGGGCAGAGCUCAACUCAGCGUGGCAAAGUGGCUGUGGCUAGACUGCCUCUCCGGACUCCUCGUCACUCAGCAGGGCAUCUCUGAGAGAAAUGCC [C3U A67U U104C U108C] | 0.53
16 | UAUGUAGGUGGUUUUCCCCUGAUAGUGCUAAGGUGGCCUGGAAGUUUGGACUGGGCAGAGCUCAACACAGCAUGGCAAAGUGGCUGUGGCUAGACUGCCUCUCUGGAUUCCUCGUCACUCAGCAGGGCAUCUCUGAGAGAAAUGCC [C3U G34U G72A] | 1.65
17 | UAUGUAGGAGGUUUUCCCCUGAUAGUGCUAAGGGGGCCUGGAAGUUUGGACUGGGCAGAGCUCAACACAGCGUGGCAAAGUGGCUGUGGCUAGACUGCCUCUCUGGAUUCCUCGUCACUCAGCAGGGCAUCUCUGAGAGAAGUGCC [C3U U9A A142G] | 0.92
18 | UAUGUAGGUGGUUUUCCCCUGAUAGUGCUAAGGGGGCCUGGAAGUUUGGGCUGGGCAGAGCUCAACACAGCGUGGCAAAGUGGCUGUGGCUAGACUGCCUCUCUGGAUUCCUCGACACUCAGCAGGGCAUCUCUGAGAGAAAUGCC [C3U A50G U115A] | 1.18
19 | UAUGUAGGUGGUUUUCCCCUGAUAGUGCUAAGGGGGCCUGGAAGUUUGGACUGGGCAGAGCUCAACACAGCGUGGCAAAGUGGCUGUGGCUAGACUGCCUCUCUGGAUUCCUCGUCGCUCAGCAGGGCAUCUCUGAGAGAAACGCC [C3U A117G U143C] | 1.15
20 | UAUGUAGGUGGUUUUCCCCUGAUAGUGCUAAGGGGGCCUGGAAGUUUGGACUGGGCAGAGCUCAACACAGCGUGGCAAAGUGGCUGUGGCUAGGCUGCCUCUCUGGGUUCCUCGUCACUCAGCAGGGCAUCUCUGAGAGAAAUGCC [C3U A94G A107G] | 0
